Experimental data as given in the supplement of paper PMC8512760.
This is one part of the list. Repeats are few or missing, and single values can be far off.

Columns and labels:
Experiment in all cases: cell viability relative to vehicle (% of vehicle); basal-like triple-negative breast cancer lines; higher = less cytotoxic
Conditions in all cases: 10 µM; 72 h
HCC-1143 = system: HCC-1143
HCC-1187 = system: HCC-1187
MDA-468 = system: MDA-468
SUM-149 = system: SUM-149
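Further: stably firefly luciferase-GFP labeled cells in 96-well plates, viability read as luciferase photon flux after d-luciferin addition, treated wells normalized to vehicle wells, single-dose high-throughput screen.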

Structure (SMILES)	cell viability (HCC-1143)	cell viability (HCC-1187)	cell viability (MDA-468)	cell viability (SUM-149)
CCC(C)n1ncn(-c2ccc(N3CCN(c4ccc(OCC5COC(Cn6cncn6)(c6ccc(Cl)cc6Cl)O5)cc4)CC3)cc2)c1=O (centres undefined) [Itraconazole]	64.9	65.8	90.6	113
CCN1CCN(c2cc3c(cc2F)c(=O)c(C(=O)O)cn3C2CC2)CC1 [Enrofloxacin]	92.2	95.7	114	117
NC(=O)N1c2ccccc2C=Cc2ccccc21 [Carbamazepine]	86	82.3	97.1	123
COc1cc(Nc2c(C#N)cnc3cc(OCCCN4CCN(C)CC4)c(OC)cc23)c(Cl)cc1Cl [Bosutinib (SKI-606)]	65.5	74.2	108	56.9
CC1(C)CCC(CN2CCN(c3ccc(C(=O)NS(=O)(=O)c4ccc(NCC5CCOCC5)c([N+](=O)[O-])c4)c(Oc4cnc5[nH]ccc5c4)c3)CC2)=C(c2ccc(Cl)cc2)C1	61.3	59.7	93.3	58.4
CC(C)CC(NC(=O)CNC(=O)c1cc(Cl)ccc1Cl)B(O)O (centres undefined)	17.3	8.86	13.7	28.3
CC12CC3CC(C)(C1)CC(N)(C3)C2.Cl [Memantine hydrochloride]	78.6	96.7	131	113
N[C@@H](CCC(=O)N[C@@H](CS)C(=O)NCC(=O)O)C(=O)O [L-Glutathione Reduced]	92	103	98.9	77.3
O=C(O)/C=C/c1ccc(O)c(O)c1 [Caffeic acid]	78.5	80	106	102
Cl.Clc1cccc(Cl)c1NC1=NCCN1 [Clonidine HCl]	96.9	109	109	99.3
CCOc1nc2cccc(C(=O)O)c2n1Cc1ccc(-c2ccccc2-c2nc(=O)o[nH]2)cc1 [Azilsartan]	97.7	95.7	112	110
NC(=O)CC[C@H](N)C(=O)O [L-Glutamine]	70.3	100	110	92.5
CCc1c(Cl)c(O)c(Cl)c(O)c1C(=O)OC1C(C)OC(OCC2=CC=CCC(O)C(C)=CC(CC)C(OC3OC(C)(C)C(OC(=O)C(C)C)C(O)C3O)C(C)=CC(C)=CCC(C(C)O)OC2=O)C(OC)C1O (centres undefined) [Fidaxomicin]	70.4	103	94.5	110
CCCCS(=O)(=O)NC(Cc1ccc(OCCCCC2CCNCC2)cc1)C(=O)O.Cl.O (centres undefined) [Tirofiban hydrochloride monohydrate]	106	93.4	91.4	109
Cc1ccnc(NS(=O)(=O)c2ccc(N)cc2)n1 [Sulfamerazine]	78.3	74.8	96.4	99.9
CCOC(=O)C(CCc1ccccc1)NC(C)C(=O)N1C(C(=O)O)CC2CCCC21 (centres undefined) [Ramipril]	94.2	88.6	110	104
CC(C(=O)O)c1ccc2c(c1)CC(=O)c1ccccc1S2 (centres undefined) [Zaltoprofen]	114	93.4	112	114
CNC(=O)c1cc(Oc2ccc(NC(=O)Nc3ccc(Cl)c(C(F)(F)F)c3)c(F)c2)ccn1.Cl [Regorafenib hydrochloride]	84.8	101	89.6	111
COc1ccccc1N1CCN(CC(O)COc2cccc3ccccc23)CC1 (centres undefined) [Naftopidil]	76.6	92.9	107	95.4
CC(=O)O[C@H]1C(=O)[C@@]2(C)[C@H]([C@H](OC(=O)c3ccccc3)[C@]3(O)C[C@H](OC(=O)[C@H](O)[C@@H](NC(=O)c4ccccc4)c4ccccc4)C(C)=C1C3(C)C)[C@]1(OC(C)=O)CO[C@@H]1C[C@@H]2O [Paclitaxel (Taxol)]	53.9	34.8	33.8	62.4
COC(=O)NC(C(=O)N1CCCC1c1ncc(-c2ccc(-c3ccc(-c4cnc(C5CCCN5C(=O)C(NC(=O)OC)C(C)C)[nH]4)cc3)cc2)[nH]1)C(C)C (centres undefined)	107	106	66.4	96.2
CC12CCC(O)CC1=CCC1C2CCC2(C)C(n3cnc4ccccc43)=CCC12 (centres undefined)	73.9	96.4	133	90.4
CCCN(CCC)C(=O)C1=Cc2ccc(-c3ccc(C(=O)N4CCCC4)cc3)cc2NC(=N)C1 [Motolimod (VTX-2337)]	72.5	38.1	99.5	120
Br.Cc1ccc(Sc2ccccc2N2CCNCC2)c(C)c1	103	19.6	35.7	26.9
CCCC(=O)[O-].[Na+] [Sodium butyrate]	75.9	101	107	80.2
Nc1ccc2cc3ccc([NH3+])cc3nc2c1.Nc1ccc2cc3ccc([NH3+])cc3nc2c1.O=S(=O)([O-])[O-] [Proflavine Hemisulfate]	27.7	24.1	27.2	101

Structure (SMILES)	cell viability (HCC-1143)	cell viability (HCC-1187)	cell viability (MDA-468)	cell viability (SUM-149)
Nc1ccn(C2OC(CO)C(O)C2O)c(=O)n1 (centres undefined) [Cytidine]	71.1	70.5	114	132
CC(OC1OCCN(Cc2nc(=O)[nH][nH]2)C1c1ccc(F)cc1)c1cc(C(F)(F)F)cc(C(F)(F)F)c1 (centres undefined) [Aprepitant]	81.2	77.5	77.1	123
CC(C)(O)c1ccccc1CCC(SCC1(CC(=O)[O-])CC1)c1cccc(C=Cc2ccc3ccc(Cl)cc3n2)c1.[Na+] (centres undefined) [Montelukast Sodium]	72.4	81.5	111	96.9
CC1(c2nc3c(C(N)=O)cccc3[nH]2)CCCN1 (centres undefined) [ABT-888 (Veliparib)]	84.3	77.3	81.3	123
CCOc1cc(N)c(Cl)cc1C(=O)NCC1CN(Cc2ccc(F)cc2)CCO1.O=C(O)CC(O)(CC(=O)O)C(=O)O (centres undefined) [Mosapride Citrate]	73.1	103	107	98.3
CC=C1NC(=O)C2CSSCCC=CC(CC(=O)NC(C(C)C)C(=O)N2)OC(=O)C(C(C)C)NC1=O (centres undefined) [Romidepsin (FK228, depsipeptide)]	23.8	13.7	18.2	56.1
O=C(O)CCc1nc(-c2ccccc2)c(-c2ccccc2)o1 [Oxaprozin]	75.8	83.6	94	91.6
COc1ccc(C=CC(=O)Nc2ccccc2C(=O)O)cc1OC [Tranilast]	40.5	38.9	56.2	136
CCC(Nc1ncnc2nc[nH]c12)c1nc2cccc(F)c2c(=O)n1-c1ccccc1 (centres undefined) [CAL-101 (Idelalisib, GS-1101)]	80.9	78.9	56.2	94.3
COc1nc(C)cnc1NS(=O)(=O)c1cccnc1-c1ccc(-c2nnco2)cc1 [Zibotentan (ZD4054)]	84.2	82.7	86.8	115
COc1cc2nccc(Oc3ccc(NC(=O)NC4CC4)c(Cl)c3)c2cc1C(N)=O [Lenvatinib (E7080)]	74.9	81.8	74	87.8
CC1=NN(c2ccccc2)C(=O)C1 [Edaravone]	83	122	43.1	112
Nc1ccccc1NC(=O)c1ccc(CNC(=O)OCc2cccnc2)cc1 [Entinostat (MS-275,SNDX-275)]	108	37.7	53.5	16.2
Cc1nc(-c2ccc(OCC(C)C)c(C#N)c2)sc1C(=O)O [Febuxostat]	25.6	26.1	38.5	36.1
C=C1CCC(O)CC1=CC=C1CCCC2(C)C1CCC2C(C)C=CC(C)C(C)C (centres undefined) [Vitamin D2 (Ergocalciferol)]	72.3	106	109	117
Cc1cnc(NC(=O)C2=C(O)c3ccccc3S(=O)(=O)N2C)s1 [Meloxicam (Mobic)]	110	92.8	112	116
CCCCN1CCCCC1C(=O)Nc1c(C)cccc1C.Cl (centres undefined) [Levobupivacaine HCl]	79.4	81.8	106	137
COCCOC(=O)C1=C(C)NC(C)=C(C(=O)OC(C)C)C1c1cccc([N+](=O)[O-])c1 (centres undefined) [Nimodipine]	98.8	125	123	117
C#C[C@]1(O)CC[C@H]2[C@@H]3CCC4=CC(=O)CC[C@@H]4[C@H]3C(=C)C[C@@]21CC [Etonogestrel]	78.1	109	129	118
O=C(O)COCCN1CCN(C(c2ccccc2)c2ccc(Cl)cc2)CC1 (centres undefined) [Cetirizine]	79.5	87.8	92.7	139
Clc1ccc(C(Cn2ccnc2)OCc2c(Cl)cccc2Cl)c(Cl)c1.O=[N+]([O-])O (centres undefined) [Isoconazole nitrate]	122	108	98.4	105
CCN(CC)CCOC(=O)c1ccc(N)cc1 [Procaine]	72.7	85	127	114
Cc1ccc(Nc2nccc(N(C)c3ccc4c(C)n(C)nc4c3)n2)cc1S(N)(=O)=O.Cl	92.8	93.8	88.6	119
CCn1cc(C(=O)O)c(=O)c2cc(F)c(N3CCNCC3)nc21 [Enoxacin (Penetrex)]	63.5	82.6	76.9	153
N#CC1CCCN1C(=O)CNC12CC3CC(CC(O)(C3)C1)C2 (centres undefined) [Vildagliptin (LAF-237)]	120	101	97.3	119
